{"source": "paper PMC4336329", "about": "(PLoS ONE, 2015)", "note": "Hit rate of the full screen: of about 310,000 compounds, about 14,000 (4.5%) showed an effect of 50% or more. Effects have a minus sign here. Some of the results follow.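 Also: peak tail current of the secondary pulse compared with the same well before compound.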", "data": [{"target": "human ether-à-go-go-related gene (hERG) potassium channel (human, UniProt Q12809)", "sequence (Q12809 whole entry, looked up)": "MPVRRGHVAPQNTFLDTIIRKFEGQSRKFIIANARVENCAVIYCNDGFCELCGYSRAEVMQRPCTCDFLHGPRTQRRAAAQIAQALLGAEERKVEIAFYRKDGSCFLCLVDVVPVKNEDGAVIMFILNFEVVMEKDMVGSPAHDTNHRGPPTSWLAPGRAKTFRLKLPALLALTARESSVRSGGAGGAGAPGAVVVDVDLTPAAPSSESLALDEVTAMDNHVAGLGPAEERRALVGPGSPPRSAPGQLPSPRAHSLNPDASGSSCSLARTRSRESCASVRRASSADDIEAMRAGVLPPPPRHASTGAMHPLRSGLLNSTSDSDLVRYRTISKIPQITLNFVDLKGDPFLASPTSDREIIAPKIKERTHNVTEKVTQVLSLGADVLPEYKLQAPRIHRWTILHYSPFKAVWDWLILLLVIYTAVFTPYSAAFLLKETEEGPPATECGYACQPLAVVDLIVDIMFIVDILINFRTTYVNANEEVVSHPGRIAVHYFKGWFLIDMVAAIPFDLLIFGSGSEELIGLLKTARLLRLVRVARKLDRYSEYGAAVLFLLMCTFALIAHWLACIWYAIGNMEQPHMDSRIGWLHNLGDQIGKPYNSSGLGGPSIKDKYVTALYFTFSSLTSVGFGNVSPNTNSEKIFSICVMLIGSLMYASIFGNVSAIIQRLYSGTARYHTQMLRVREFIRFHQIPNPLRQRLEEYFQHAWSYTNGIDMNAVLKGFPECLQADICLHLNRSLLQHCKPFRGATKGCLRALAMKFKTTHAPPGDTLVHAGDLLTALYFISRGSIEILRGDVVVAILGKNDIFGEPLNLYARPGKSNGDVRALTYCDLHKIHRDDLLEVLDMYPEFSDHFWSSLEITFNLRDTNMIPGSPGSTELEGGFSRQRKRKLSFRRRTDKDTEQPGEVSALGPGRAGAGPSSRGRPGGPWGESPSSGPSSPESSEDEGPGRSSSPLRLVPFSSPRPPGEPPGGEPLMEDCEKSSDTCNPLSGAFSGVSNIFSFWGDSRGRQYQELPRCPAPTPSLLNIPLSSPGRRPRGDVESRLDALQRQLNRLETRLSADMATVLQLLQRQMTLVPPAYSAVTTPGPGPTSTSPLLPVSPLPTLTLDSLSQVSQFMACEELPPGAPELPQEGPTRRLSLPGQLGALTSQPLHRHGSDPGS", "assay": "primary screen, population patch clamp on CHO cells stably expressing hERG", "units": {"hERG current change (%, negative = inhibition) at 10uM": "%"}, "values": [{"smiles": "Cc1ccc(S(=O)(=O)N2CCCCC2CCNC(=O)C(=O)NCc2ccccc2)cc1", "note": "(centres unmarked)", "hERG current change (%, negative = inhibition) at 10uM": -7.6}, {"smiles": "CCCCOc1ccc(C(=O)N2CCN(c3ncccn3)CC2)cc1", "hERG current change (%, negative = inhibition) at 10uM": -9.16}, {"smiles": "CCc1c(C)nc(N)nc1Cl", "hERG current change (%, negative = inhibition) at 10uM": 19.9}, {"smiles": "COc1ccc(/C(O)=C2/C(=O)C(=O)N(CC3CCCO3)C2c2ccc(O)c(OC)c2)cc1", "note": "(centres unmarked)", "hERG current change (%, negative = inhibition) at 10uM": 19.1}, {"smiles": "O=C(O)c1ccc2c(c1)SC1=NS(=O)(=O)CCN12", "hERG current change (%, negative = inhibition) at 10uM": 8.48}, {"smiles": "O=c1[nH]c(-c2ccco2)nc2sc3c(c12)CCCC3", "hERG current change (%, negative = inhibition) at 10uM": 7.64}, {"smiles": "COCCCNCCCCOc1ccc(Br)cc1Cl.O=C(O)C(=O)O", "hERG current change (%, negative = inhibition) at 10uM": -67.1}, {"smiles": "Cc1ccc(NCc2nnc(SCC(=O)OC3CCCCC3)o2)c(C)c1", "hERG current change (%, negative = inhibition) at 10uM": 8.15}, {"smiles": "CN(C)/C=C(/C(=O)c1ccc(Cl)cc1Cl)S(=O)(=O)c1ccccc1", "hERG current change (%, negative = inhibition) at 10uM": 8.62}, {"smiles": "Brc1cccc(CN2CCCCCC2)c1", "hERG current change (%, negative = inhibition) at 10uM": 2.02}, {"smiles": "COCCN(Cc1ccccc1)C(=O)c1cc(-c2ccc(OC)c(OC)c2)nc2ccccc12", "hERG current change (%, negative = inhibition) at 10uM": -12.4}, {"smiles": "Cc1nnc(SC(C)C(=O)Nc2ccc3c(c2)OCCO3)s1", "note": "(centres unmarked)", "hERG current change (%, negative = inhibition) at 10uM": 8.52}, {"smiles": "CC(C)NC(=O)c1onc(CSc2cccc(F)c2)c1C(=O)O", "hERG current change (%, negative = inhibition) at 10uM": 6.47}, {"smiles": "COC(=O)c1ccc(NC(=O)COc2ccc([N+](=O)[O-])cc2)cc1", "hERG current change (%, negative = inhibition) at 10uM": 12.4}, {"smiles": "CCOC(=O)c1c(C)[nH]c(C(=O)OCC(=O)N(C)CC(=O)Nc2ccccc2Cl)c1C", "hERG current change (%, negative = inhibition) at 10uM": -2.23}, {"smiles": "O=C(CN1CCCCC1)Nc1cccc(-n2cnnn2)c1", "hERG current change (%, negative = inhibition) at 10uM": 0.45}, {"smiles": "CC(C)(C)SCCNC(=O)c1cccc([N+](=O)[O-])c1", "hERG current change (%, negative = inhibition) at 10uM": 10.5}, {"smiles": "Cc1ccc(C2=CC(=O)CC(C)(C)C2)cc1", "hERG current change (%, negative = inhibition) at 10uM": 2.6}, {"smiles": "Cc1ccc(NC(=O)CNC(=O)c2ccc(C)o2)cc1", "hERG current change (%, negative = inhibition) at 10uM": 9.14}, {"smiles": "COc1ccc(Cl)cc1NC(=O)CN1CCC(n2nnc3ccccc32)CC1", "hERG current change (%, negative = inhibition) at 10uM": -10.4}, {"smiles": "COc1ccc(CNC(=O)Cn2cccc2C(=O)c2ccccc2C)cc1", "hERG current change (%, negative = inhibition) at 10uM": 16}, {"smiles": "CC(=NCCc1ccccc1)C1=C(O)CSC1=O", "hERG current change (%, negative = inhibition) at 10uM": -2.49}, {"smiles": "O/N=C/c1ccc(OCC(O)COc2ccc(/C=N/O)cc2)cc1", "hERG current change (%, negative = inhibition) at 10uM": -41.2}, {"smiles": "COc1ccc(N2CCN(C(CNS(C)(=O)=O)c3ccco3)CC2)cc1", "note": "(centres unmarked)", "hERG current change (%, negative = inhibition) at 10uM": -7.42}, {"smiles": "O=Cc1cccc(Oc2ncccn2)c1", "hERG current change (%, negative = inhibition) at 10uM": 8.87}, {"smiles": "O=C(Nc1ccn(Cc2ccccc2)n1)c1ccc2c(c1)OCO2", "hERG current change (%, negative = inhibition) at 10uM": -3.08}]}]}
